Reference: the RNAGym collection of RNA variant scans (doi:10.1093/nar/gkz1192)
Read counts are not given, so values of variants with three or more changes are uncertain.

B1: CPEB3 Ribozyme (parent)
chain: UAACAGGGGGCCACAGCAGAAGCGUUCACGUCGCAGCCCCUGUCAGAUUCUGGUGAAUCUGCGAAUUCUGCUGUAUAUCUC

Variants of: B1
Assay: self-cleavage, relative activity (ratio to wild type); higher = more cleavage; in vitro, sequencing
Procedure, shortened: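 Barcoded CPEB3 ribozyme mutants, produced by rounds of error-prone PCR, self-cleaved while being transcribed with T7 RNA polymerase for 5 hours at 37°C and during a subsequent 15 min DNase I step before EDTA was added. Sequencing of template-switched cDNA on Illumina gave cleaved and total reads, and DNA sequencing assigned barcodes to variants. Each variant's relative activity is its cleaved/total read fraction divided by the unmutated ribozyme's fraction, averaged across three batches. A variant needed a minimum of 5 reads.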

Variant | self-cleavage
A3G U31C G33A G63U A64G | 0.07
C4U A45U U49C U69C | 0.08
A3G U69G A77U | 0.59
A3U A20U A28U A64G | 0.44
C4A G6A C11A A47U | 0.57
A3U U67C U69C U74C U80C | 0.3
C4U A28G U43C U58A U78C | 0.22
A3G U66C C71U | 0.43
C4G A21G U26C U72A | 0.23
A3U A15G A77G | 0.86
A3U A13U U41G U58C | 0.15
A5C A15G A45U U74C | 0.7
A5C A13G U31C C37U U78A | 0.32
C4U A13U U31A U51C | 1.08
C4U G6A A75U U78C | 0.52
A3U U26C U43C U54C | 0.28
A3U U25A A28G | 0.12
A3G U49C U76A | 0.44
A3G U54A U60C U80C | 0.84
A3U A18G A20C C34U A35G A64G U80A | 0.15
C4U A20U U25C | 0.41

Variant | self-cleavage
A5C A15C G42C | 0.33
A3G U48C G61C | 0.07
A5C A15C U60C | 0.62
C4U A45C A64G | 0.72
A3U A28G U51C U60C | 0.07
C4G C27A G30A U31G | 0.23
C4A C14G A18G A20U G24A A77G | 0.1
C4A A28G U49C A56G | 1.01
A3G U25C U43C U66C U76C | 0.47
A3G U26C C40U A47G U72A | 0.05
A5C A18G U58C A77G | 0.19
A3U G8U U60C U69C | 0.17
A3G U26A U80C | 0.92
A3G U67C U80C | 0.52
C4U C38U G61A | 0.47
A3G U26C U31C U49A | 0.51
A3G U31C A35G | 1.19
A3U U51A A65G | 0.69
A3G U26C A57G | 0.3
C4U A20G C27U | 0.6
A3U U26C A35U U66C U67C | 0.18

Variant | self-cleavage
A5C A18G A45G | 0.65
A3G U26C A28U U31C | 0.29
A3G U31A U43C | 0.39
A3U U25C A28G A64G | 0.65
A3U A13U A18U U25C A45U U51A | 0.21
A3U A28G C39U A47U | 0.08
A3U A18C U60A | 0.42
A3U A13C G16C A20G A45G U49C | 0
C4A A65G U67C | 0.41
C4U U31C A56G U80A | 1.16
A3U C11U G61C U66C U80A | 0.15
A3U U26C A28U U54C | 0.48
C4U A5C A20U A21U A28G A77U | 0.16
A3U A47G A57G U58A | 0.52
A3U G8A A64G U69C | 0.21
A3U G6U U31C A35U U54C G73A | 0.41
C4U C12U A28G A45G G53C A77G | 0.73
A3U C29U U43C | 0.23
A3G U41G A56G U69C | 0.35
A3G U51C A56G U74A | 1.22
A3U A20U U60C U74C | 0.41

Variant | self-cleavage
A3U A13U U58A U72C | 0.46
A3G U51C A57G G73A | 1.25
A3U U51C U78C U80A | 0.86
A3U C4A C37U U49C A64G U67C | 0.1
A3G U25C A65G | 0.65
C4U A13G U58A | 0.4
C4U A18U U48C A56G U80A | 0.21
A3G U43C U49A U51C U54A U72C | 0.12
A3G U31C A35U A45C G63C | 0.1
A3U A5U G9A A28G | 0.13
A3U G7A A28U C32A U41C U51C A65C | 0.06
A3G U25A G33U U43C U69C | 0.19
A3U G10C G16A | 0.28
A3U A28C A35G C39A U51C | 0.35
A5C A13U A57G U58C A65U U66C | 0
A3U A15C A21G U31C G46A A64G | 0.06
A3U A15C A20C U25C U60C | 0.45
A3G U26C U41A U76A | 0.6
A3U C4U U25C A57G A75U | 0.53
A3U U26A U51A U78C | 0.71
